{
  "source": "the RNAGym collection of RNA variant scans (doi:10.1073/pnas.2313332121)",
  "parents": {"B1": {"name": "TPR 5TU (parent)", "chain": "GGAUCUUCUCGAUCUAACAAAAAAGACAAAUCUGCCACAAAGCUUGAGAGCAUCUUCGGAUGCAGAGGCGGCAGCCUUCGGUGGCGCGAUAGCGCCAACGUUCUCAACUAUGACACGCAAAACGCGUGCUCCGUUGAAUGGAGUUUAUCAUG"}},
  "note": "This sample is rich in variants without activity.",
  "data": [
    {"variants_of": "B1", "assay": "polymerase ribozyme fitness, log enrichment relative to wild type (log ratio); higher = more active; in vitro selection for triplet polymerase activity", "in_short": "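Mutant libraries were PCR-built and transcribed for each subunit of a heterodimeric triplet polymerase ribozyme and selected for one round in triplicate at −7 °C, frozen, before gel excision of extended constructs and streptavidin-bead capture. Input and output libraries were Illumina-sequenced, keeping genotypes with ≥10 input reads and ≥1 read per output. Fitness is a logarithmic ratio of genotype to wild-type enrichment, in base 2, using inverse-variance-weighted replicate averages.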", "values": [
      {"variant": "GGAUCUUCUCGAUCUAACAAGAAAGAGAAAUCCGCCACAAAGCUUGAGAGCAUCUUCCGAUGCAGAGGCGGCAGCCUUCGGUGGCGCGAUAGCGCUUACGUUCUCGACUAUGACACGCAAAACGCGUGCUCCGUUGAAUGUAGUUUAUCAUG", "note": "[A21G C27G U33C G58C C96U A97U A106G G141U]", "polymerase ribozyme fitness (log ratio)": "≤ -4.2"},
      {"variant": "GGAUCUUCUCGAUCUAACAAGAAAGAUAAAUCUGCCACAUAGCUUGAGAGCAUCUUCGGAUGCAGAGGUGGCAGCCUUCGGUGGCGCGAUAGCGGCAGUGUUCUCAACUAUGACUCGCAAAACGCGUGCUCCGUUGAAUGGUGUUUAUCAUG", "note": "[A21G C27U A40U C69U C95G A98G C99U A115U A142U]", "polymerase ribozyme fitness (log ratio)": "≤ -4.2"},
      {"variant": "GGAUCUUCUCGAUCUAACAAGAAAGACAAAUGUGCCACAAAGCUUGAGACCAUCUUCGGAUGCAGAGGCGGCAGCCUUCGGUGGCGCGAUAGCGGAAACGUUCUCAACUAUGACACGCAAAACGCGUGCUCCGUUGAAUGGAGUUUAUCAUG", "note": "[A21G C32G G50C C95G C96A]", "polymerase ribozyme fitness (log ratio)": "≤ -4.2"},
      {"variant": "GGAUCUUCUCGAUCUAACAAGAAAGACAAAUCUGCGACAAAGCUUGCGAGCAUCUUCGGAUGCAGAGGCGGCAGCCUUCGGUGGCGCGAUAGCGCCAACGUUCUCAACUAUGACACGCACAACGCGUGCUCCAUUGAAUGGAGUUUAUCAUG", "note": "[A21G C36G A47C A120C G133A]", "polymerase ribozyme fitness (log ratio)": "≤ -4.2"},
      {"variant": "GGAUCUUCUCGAUCUAACAAGAAAGACAAAUCUGCCACAAAGCUUGAGAGCAUCUUCGGAUGCAGAGGCGGCAGACUUCGGUGGCGCGAUAGCGUCAACGUUCUCAACUAUGACACGCAAAACGCGUGCUCCGUUGAAUUGAGUUUAUCAUG", "note": "[A21G C75A C95U G140U]", "polymerase ribozyme fitness (log ratio)": "≤ -4.2"},
      {"variant": "GGAUCUUCUCGAUCUAACAAGAAAGACAAAUCUGCCACAAAGCUUGAGAGCAUCUUCGGAUGCAGAGGCGGCAGCCUUAGGUGGCGCGAUAGAGCCAACGUUCUCAACUAUGACACGCAAAACGCAUGCUCCGUUGAAUGGAGUUUAUCAUG", "note": "[A21G C79A C93A G126A]", "polymerase ribozyme fitness (log ratio)": "≤ -4.2"},
      {"variant": "GGAUCUUCUCGAUCUAACAAGAAAGACAAAUCUGCCACAAAGCUUGAGAGCAUCUUCGGAUGCAGAGGCGGCAGCCUUCGGUGGCGGGAUAGCGCCAACGUUCUCAACUAUGACACGCAAAACGCGUGCUCCGUUGAAUGGAGUUUAUCAUG", "note": "[A21G C87G]", "polymerase ribozyme fitness (log ratio)": "≤ -4.2"},
      {"variant": "GGAUCUUCUCGAUCUAACAAGAAAGACAAAUCUGCCACAAAGCUUGAGAGCAUCUUCGGAUGCAGAGGCGGCAGCCUUCGGUGGCGCGAUAGCGCCAACGUUCUCAACUAUGACACGCAAAACGAAUGCUCCGUUGAACGGAGUUUACCAUG", "note": "[A21G C125A G126A U139C U148C]", "polymerase ribozyme fitness (log ratio)": "≤ -4.2"},
      {"variant": "GGAUCUUCUCGAUCUAACAAGAAAAACAAAUCUGCCACAAAGCUUGAGAGCAUCUACGGAUGCAGAGGCGGCAGCCUUCGGUGGCGCGAUAGUGCCAACGUUCUCAACUAUGACACGCGCAACGCGUGCUCCGUUGAAUGGAGUUCAUCAUG", "note": "[A21G G25A U56A C93U A119G A120C U146C]", "polymerase ribozyme fitness (log ratio)": -3.11},
      {"variant": "GGAUCUUCUCGAUCUAACAAGAAAGACAAAUCUUCCACAAAGCUUGAGAGCAUCCGCGGAUGCAGAGGCGGCAGCCUUCGGUGGCGAGAUAGCGCCAACGUUCUCAACUAUGACACGCAAAACGCCUGCUCCGUUGAAUGGAGAUUAUCAUG", "note": "[A21G G34U U55C U56G C87A G126C U144A]", "polymerase ribozyme fitness (log ratio)": "≤ -4.2"},
      {"variant": "GGAUCUUCUCGAUCUAACAAGAAAGACAAAUCUGCCACAAAGCUUGAGACCAUCUUCGGAUGCAGAGGCGGCAGCCUUCGGUGGCGCGAUAGUGCCAACGUUCUCAACUAUGACACGUAAAACGCGUGCUCCGUUGAUUGGAGUAUAUCAUG", "note": "[A21G G50C C93U C118U A138U U145A]", "polymerase ribozyme fitness (log ratio)": "≤ -4.2"},
      {"variant": "GGAUCUUCUCGAUCUAACAAGAAAGACAAAUCUGCCACAAAGCUUGAGAUCAUCUUCGGAUGCAGAGGCGGCAGCCUUCGGUGGCGCGAUAGCGGUAACGUUCUCAACUCUGACACGCAAAACGCGUGCUCCGUUGAAUGGAGUUUAUCAUG", "note": "[A21G G50U C95G C96U A110C]", "polymerase ribozyme fitness (log ratio)": "≤ -4.2"},
      {"variant": "GGAUCUUCUCGAUCUAACAAGAAAGACAAAUCUGCCACAAAGCUUGAGAGCAUCUUCGGAUCCAGAUGCGGCAGCCUUCGGUGGUGCGAUAGCGCCAACGUUCUCGACUAUGACACGCAAAACGCGUGCUCCGUUGAAUGGAGUUUAUCAUG", "note": "[A21G G62C G67U C85U A106G]", "polymerase ribozyme fitness (log ratio)": "≤ -4.2"},
      {"variant": "GGAUCUUCUCGAUCUAACAAGAAAGACAAAUCUGCCACAAAGCUUGAGAGCAUCUUCGGAUGCAGAGACGGCAGCCUUCGGUGGCGCGAUAGCGCCAACGUUCUCAACUAUGACACGCAAAACGCGUGCUCCGUUGAAUGGAGUUUAUCAUG", "note": "[A21G G68A]", "polymerase ribozyme fitness (log ratio)": -3.89},
      {"variant": "GGAUCUUCUCGAUCUAACAAGAAAGACAAAUCUGCCACAAAGCUUGAGAGCAUCUUCGGAUGCAGAGCCGGCAGCCUUCGGUGGAGCGAUAACGCCAACGUUCUCAACUAUGACACGCAAAACGCGUUCUCCGUUGAAUGGAGUUUAUCAUG", "note": "[A21G G68C C85A G92A G128U]", "polymerase ribozyme fitness (log ratio)": "≤ -4.2"},
      {"variant": "GGAUCUUCUCGAUCUAACAAGAAAGACAAAUCUGCCACAAAGCUUGAGAGCAUCUUCGGAUGCAGAGGCUGCAGCCUUCAGUGGCGCGAUAGUGCCAACGUUCUCAACUAUGACACGCAAAACGCGUGCUCCGUUGAAUGGAGUUUAUCAUG", "note": "[A21G G70U G80A C93U]", "polymerase ribozyme fitness (log ratio)": "≤ -4.2"},
      {"variant": "GGAUCUUCUCGAUCUAACAAGAAAGACAAAUCUGCCACAAAGCUUGAGAGCAUCUUCGGAUGCAGAGGCGACAGCCUUCGGUGGCGCGAUAGCGCCAACGUUCUCAACUAUGACACGCAAAACGCGUGCUCCGUUGAAUGGAGUUGAUCAUG", "note": "[A21G G71A U146G]", "polymerase ribozyme fitness (log ratio)": "≤ -4.2"},
      {"variant": "GGAUCUUCUCGAUCUAACAAGAAAGACAAAUCUGCCACAAAGCUUGAGAGCAUCUUCGGAUGCAGAGGCGGCAGCCUUCGUUGGCGCGAUAGCGAAAUCGUUCUCAACUAUGACACGCAAAACGCGUGCUCCGUUGAAUGGAGUAUAUCAUG", "note": "[A21G G81U C95A C96A A98U U145A]", "polymerase ribozyme fitness (log ratio)": -1.34},
      {"variant": "GGAUCUUCUCGAUCUAACAAGAAAGACAAAUCUGCCACAAAGCUUGAGAGCAUCUUCGGAUGCAGAGGCGGCAGCCUUCGGUGACGUGAUAGCGCCAACGUUCUCAACGAUGACACGCAAAACGCGUGCUCCGUUGAAGGGAGCUUAUCAUG", "note": "[A21G G84A C87U U109G U139G U144C]", "polymerase ribozyme fitness (log ratio)": "≤ -4.2"}
    ]}
  ]
}
